Data from PubChem BioAssay AID488969 (Vanderbilt High Throughput Screening Facility, 2010).
Over roughly 110,000 compounds, “z-score” has its median near -0.1; the highest 2% begin near 2. The list shows a part of the results.

target: Metabotropic glutamate receptor 8 (Rattus norvegicus) (UniProt P70579); assay: rat mGluR8 modulators via GIRK flux, primary screen, cell-based, thallium flux, HTS (AID 488969); conditions: HEK293 rat mGluR8, GIRK (G protein-gated inwardly rectifying potassium channel) thallium flux, FluoZin2; at 10 µM; stronger effect = higher value; submaximal glutamate (EC20) added with thallium
UniProt P70579, sequence (P70579 whole entry, looked up): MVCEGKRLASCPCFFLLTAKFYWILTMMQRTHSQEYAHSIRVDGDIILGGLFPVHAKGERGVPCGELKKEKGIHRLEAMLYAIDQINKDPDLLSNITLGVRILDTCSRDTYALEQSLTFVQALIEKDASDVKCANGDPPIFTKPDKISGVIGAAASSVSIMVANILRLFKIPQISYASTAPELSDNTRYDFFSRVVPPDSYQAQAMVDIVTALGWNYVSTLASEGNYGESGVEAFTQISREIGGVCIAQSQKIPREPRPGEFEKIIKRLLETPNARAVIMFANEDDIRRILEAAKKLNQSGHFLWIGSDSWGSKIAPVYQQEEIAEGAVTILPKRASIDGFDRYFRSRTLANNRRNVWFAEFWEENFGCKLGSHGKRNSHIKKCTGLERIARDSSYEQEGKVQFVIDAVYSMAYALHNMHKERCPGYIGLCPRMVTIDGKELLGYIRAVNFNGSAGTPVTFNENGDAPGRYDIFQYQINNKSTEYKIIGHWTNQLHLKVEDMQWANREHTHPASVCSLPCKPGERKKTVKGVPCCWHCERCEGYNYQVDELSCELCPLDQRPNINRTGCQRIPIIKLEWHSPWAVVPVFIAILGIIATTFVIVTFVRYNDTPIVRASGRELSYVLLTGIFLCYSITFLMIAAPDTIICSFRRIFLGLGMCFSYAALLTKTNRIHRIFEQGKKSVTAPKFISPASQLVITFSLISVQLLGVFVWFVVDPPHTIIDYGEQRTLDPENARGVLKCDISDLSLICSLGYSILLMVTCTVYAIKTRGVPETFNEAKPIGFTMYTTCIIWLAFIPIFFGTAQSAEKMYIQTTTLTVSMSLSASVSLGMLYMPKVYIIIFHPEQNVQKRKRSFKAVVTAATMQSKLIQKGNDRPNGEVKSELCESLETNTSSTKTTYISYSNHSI

Row | SMILES | z-score
1 | O=C(Nc1nc(-c2ccc(-c3ccccc3)cc2)cs1)C1=COCCO1 | 0.163
2 | O=c1c(-c2nnc(SCc3ccc(Cl)cc3Cl)o2)cccn1Cc1ccccc1 | -0.0583
3 | CCCCn1c(=O)c(-[n+]2ccccc2)c([O-])c2ccccc21 | -0.0372
4 | Cc1ccc(-c2nn(C)c(=O)c3ccccc23)cc1S(=O)(=O)N1CCOCC1 | -0.489
5 | COc1ccc(CCNC(=O)c2cc(S(=O)(=O)N(C)c3ccccc3)ccc2Cl)cc1 | -0.215
6 | COc1ccc(N=Cc2c(O)[nH]c3ccccc23)cc1 | 0.0644
7 | COc1cc(NC(=S)NC(=O)c2ccccc2C)ccc1NC(=O)c1cccs1 | -0.0395
8 | CC(=O)c1ccccc1NC(=O)CSc1nnc2ccccn12 | -0.019
9 | O=C(O/N=C1/CCSc2ccccc21)c1ccccc1 | -0.25
10 | O=C(NCCN1CCN(c2ccccc2F)CC1)C1CCCN(S(=O)(=O)c2cnc[nH]2)C1 (stereo unspecified) | 0.0568
11 | COc1ccc(-c2n[nH]c(=S)n2Cc2ccco2)cc1 | 0.75
12 | CCC(C)NC(=O)c1[nH]c(C)c(C(=O)OC)c1C (stereo unspecified) | 0.74
13 | CC1(C)N=C(/C=N/O)C=[N+]1[O-] | 0.315
14 | COc1ccc(OC)c(N(CC(=O)Nc2ccccc2C(=O)NCc2ccco2)S(C)(=O)=O)c1 | -0.0286
15 | O=C(Nc1ccc(O)c(-c2nc3ccccc3o2)c1)C1(c2ccccc2)CCCC1 | -0.12
16 | COc1ccccc1OCC(=O)NNC(=S)NC(=O)c1ccco1 | 0.0517
17 | COc1ccc(C(=O)c2ccc(CC#N)s2)cc1 | -0.0619
18 | CC1(C)CC2(CCCN3C(=O)CSC32)CCS1 (stereo unspecified) | 0.0173
19 | O=C(COc1ccc2ccccc2c1)N1CCN(c2ccccc2O)CC1 | -0.302

Row | SMILES | z-score
20 | CCOc1ccc(C2=Nn3c(nnc3-c3ccco3)SC2)cc1 | -0.274
21 | O=C(c1cccs1)N1CCOCC1 | 0.243
22 | N#C/C(=N\Nc1ccc(F)cc1)C(=N)N1CCCCC1 | -0.376
23 | Cc1c(NS(=O)(=O)c2ccc3c(c2)n(C)c(=O)n3C)c(=O)n(-c2ccccc2)n1C | -0.339
24 | O=C(C[n+]1ccc(C(=O)N/N=C/c2ccc(OCc3ccccc3)cc2)cc1)c1ccccc1 | -0.252
25 | COc1ccc(OC)c2[nH]c(C(=O)O)cc12 | 0.861
26 | CCOc1ccc2c(C)c(Cl)c(=O)oc2c1 | -0.382
27 | COc1ccc(C(=O)Nc2nc3c(s2)CCCC3)cc1S(=O)(=O)N1CCCc2ccccc21 | -0.123
28 | O=C(CSc1ncnc2c1cnn2-c1ccccc1Cl)N1CCN(C(=O)c2ccco2)CC1 | -0.9
29 | COc1ccccc1N(C)S(=O)(=O)c1ccc(C(=O)N2CCC(C(N)=O)CC2)cc1 | -0.147
30 | O=C(O)CCCC(=O)Nc1ccc(Br)cc1 | 0.0741
31 | Cn1nc(CC(=O)N2CCN(c3ccccc3)CC2)c2ccccc2c1=O | 0.246
32 | CCOC(=O)C1=NNC2C(=O)N(CC)C(=O)C12 (stereo unspecified) | 0.457
33 | Nc1nc(-c2ccc(Cl)cc2)cc(C(F)(F)F)n1 | -0.248
34 | O=C1CCCC2=C1C(c1ccccc1)CC(=O)N2c1ccccc1 (stereo unspecified) | -0.00614
35 | COCCN(C(=O)C(C)C)c1nnc(-c2cccc(C)c2)s1 | 0.914
36 | O=C(COc1ccccc1)NC1CCN(Cc2ccccc2)CC1 | -0.351
37 | CCCSc1nnc(Sc2nnnn2-c2ccccc2)s1 | 1.05
38 | CCNCc1cc(OCC)c(OCC(=O)NCCc2ccccc2)cc1Cl | 0.21

Row | SMILES | z-score
39 | S=C(Nc1ccccc1)Nc1ccc(OCc2ccccc2)cc1 | -0.0124
40 | COc1cccc(NS(=O)(=O)c2cc(C)sc2C)c1 | -0.166
41 | COc1cc(NC(=O)C2CCCCN2)ccc1OCC(C)C (stereo unspecified) | 0.424
42 | Cc1ccc(C(=O)OCCc2c(C)[nH]n(-c3ccccc3)c2=O)cc1 | -0.419
43 | CCOC(=O)C(CC)Sc1nc(N)c(NC(=O)c2ccc(OC)c(OC)c2)c(=O)[nH]1 (stereo unspecified) | 0.132
44 | O=C(Nc1nnc(SCc2ccc(F)cc2)s1)c1ccc2ncsc2c1 | 0.249
45 | COc1ccc(C(=O)Nc2ccc(OCC(F)(F)C(F)F)c(C(F)(F)F)c2)cc1OC | -0.17
46 | CCOc1ccc(N(CC(=O)NC2CCCC2)S(=O)(=O)c2c(C)[nH]c(=O)[nH]c2=O)cc1 | -0.16
47 | COCCn1c(C)cc(C(=O)CSc2nc(C)cc(C)c2C#N)c1C | -1.5
48 | CN1/C(=C\C(=O)Nc2ccc(Cl)cc2)C(C)(C)c2ccccc21 | 0.0314
49 | O=C(CSc1nc2ccccc2o1)NC(=O)NCc1ccccc1 | -0.144
50 | COC(=O)C1C2C=CC(C3CC23)C1C(=O)OCC(=O)c1ccccc1 (stereo unspecified) | -0.181
51 | Cc1ccccc1C(=O)NCCc1nnc(SCC(=O)Nc2nc(-c3ccccc3)cs2)n1C | 0.0767
52 | C/C(=N\NC(=O)C1COc2ccccc2O1)c1ccc(C)o1 (stereo unspecified) | -0.0164
53 | O=C(CSc1nnc(Cc2ccccc2)n1C1CCCCC1)N1CCOCC1 | -0.193
54 | Cc1cccc(C)c1OCC(=O)OCC(=O)c1ccc2c(c1)NC(=O)CO2 | -0.0701
55 | CN1CCC(=NNC(=O)c2ccco2)CC1 | 0.08
56 | Cc1noc(C)c1CSc1ncnc2sc(C)c(C)c12 | -0.506
